Data reported in publication PMC11030525, “Phosphorylation-Driven Epichaperome Assembly: A Critical Regulator of Cellular Adaptability and Proliferation” (Research Square, 2024).

Biological target: T1, mCherry-HSP90β-S226E, S255E mutant (UniProt P08238, S226E | S255E)
T1 construct: HSP90β; Expressed beside the endogenous wild-type HSP90; also called mCherry-HSP90β-EE; EE mutant; source: mouse ESCs (SILAC-labelled), transfected, in lysate; HEK293, transfected, in lysate; not shown: mCherry, N-terminal, kept
T1 sequence (P08238 whole entry S226E/S255E): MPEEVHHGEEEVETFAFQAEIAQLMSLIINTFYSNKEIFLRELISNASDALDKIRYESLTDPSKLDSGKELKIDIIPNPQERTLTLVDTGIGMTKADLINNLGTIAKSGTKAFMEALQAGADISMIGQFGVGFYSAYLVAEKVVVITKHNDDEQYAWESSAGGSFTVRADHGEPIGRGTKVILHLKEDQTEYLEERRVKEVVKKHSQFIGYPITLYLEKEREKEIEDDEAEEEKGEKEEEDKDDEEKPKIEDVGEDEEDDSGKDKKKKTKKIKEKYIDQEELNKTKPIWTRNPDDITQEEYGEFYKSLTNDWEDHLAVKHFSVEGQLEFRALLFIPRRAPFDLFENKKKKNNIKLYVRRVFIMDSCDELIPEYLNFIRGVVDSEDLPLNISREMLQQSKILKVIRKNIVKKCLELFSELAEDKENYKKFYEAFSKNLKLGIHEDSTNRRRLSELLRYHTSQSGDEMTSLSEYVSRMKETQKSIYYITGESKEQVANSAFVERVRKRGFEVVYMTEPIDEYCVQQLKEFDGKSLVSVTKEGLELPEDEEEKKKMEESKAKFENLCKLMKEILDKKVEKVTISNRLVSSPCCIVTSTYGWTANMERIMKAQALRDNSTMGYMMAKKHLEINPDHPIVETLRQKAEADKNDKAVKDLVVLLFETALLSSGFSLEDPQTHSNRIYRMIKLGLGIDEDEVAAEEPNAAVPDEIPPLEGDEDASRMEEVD
Test: affinity purification with mass spectrometry; mCherry-HSP90β EE or AA precipitated on RFP Selector resin from lysates of SILAC-labelled (heavy or light) mouse ESCs, 4°C, 90 min; heavy and light samples precipitated separately, then combined; SDS-PAGE and quantitative MS
Settings: partners not purified

B1: Oct4, mouse (natural protein)
chain: not shown
notes: Oct4 transcription factor, mouse, endogenous in embryonic stem cells; source: endogenous, mouse ESC lysate
fold change against m7 (SILAC ratio EE : AA): 1.4 fold
